Reference: PubChem BioAssay AID1963576 (National Center for Advancing Translational Sciences (NCATS), 2024)
Hit rate of the full screen: of about 46,000 compounds, about 60 (0.1%) were called active. Inconclusive results (about 3%) are left out. Calls follow the shape of the dose curve; as a rule, active = well fitted inhibition curve with a large enough effect; inconclusive = small, poorly fitted or top-dose-only effect; inactive = no such curve, though single readings can be large or run the other way. The list shows a part of the results.

Test: Primary qHTS assay for Inhibitors of ovarian cancer metastasis using an organotypic tumor microenvironment (TME) model. Also: nearly all actives have a fitted effect of over 65% in size.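 As to Potency: count of GFP cancer cells still attached after washing and fixation.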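 As to activity change, negative = inhibition: plate controls were DMSO wells for no effect and tomatine positive control wells for full effect.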
Conditions: SKOV3ip1-GFP adhesion/invasion on 3D omental model, fluorescence; series mostly up to 45.8 µM; activity change, negative = inhibition: at the top concentration
In short: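 qHTS, 4-pt dose (0.36-46 umol/L); SKOV3ip1-GFP, 1,200 cells/well, no FBS; primary omental fibroblast/mesothelial co-culture 48 h pre-grown; 2 h RT + 16 h 37 C; PBS wash, 4% PFA; GFP count 488/509 nm.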
Potency is read from the fitted curve at half-maximal effect.

SMILES	activity change, negative = inhibition	outcome	Potency
CC(=O)c1ccc(NC(=O)CSc2ccc3nnc(CCNS(=O)(=O)c4ccc(C)cc4)n3n2)cc1	inactive: -7.09%		
O=c1[nH]c2ccc(NCc3ccc(-c4ccc(F)cc4)o3)cc2[nH]1	inactive: -1.48%		
CC1CCC(NC(=O)Cn2ncc3c4ccccc4n(Cc4ccc(F)cc4)c3c2=O)CC1 (configuration not stated)	inactive: -9.66%		
c1ccc2c(c1)ncc1nncn12		inactive	
CCOC(=O)Cc1c(C)nc2c(-c3ccc(Cl)cc3)c(C(F)(F)F)nn2c1C	inactive: -7.2%		
CCCc1nn2cc(-c3ccc(C)c(C)c3)nc2s1	inactive: 4.1%		
COc1ccc(/C=C/C(=O)Nc2ccc3nc4c(c(Nc5ccc(OC)c(OC)c5)c3c2)CCCC4)cc1			active: 5.01 µM
COc1ccc(-c2noc(CSc3nnc(Cc4ccccc4)n3-c3cccc(C)c3)n2)cc1		inactive	
CCc1nnc(SCC(=O)Nc2cccc(C(F)(F)F)c2)c2cc3oc(C)cc3n12	inactive: 13.1%		
O=C(COc1ccccc1)Nc1nnc(SCc2cc(=O)n3cc(Cl)ccc3n2)s1	inactive: 1.84%		
COc1ccc(CCNC(=O)CCS(=O)(=O)c2cc3c(cc2Cl)NC(=O)CO3)cc1OC	inactive: 18.5%		
Cc1ccc2onc(CNC(=O)NCc3ccccc3)c2c1	inactive: 8.18%		
CCC(C(=O)Nc1ccccc1OC)n1c(C(=O)OC)cc2sc(Cl)cc21 (configuration not stated)	inactive: -1.55%		
Cc1oc(-c2ccccc2Cl)nc1CS(=O)(=O)CC(=O)NC(C)c1ccccc1 (configuration not stated)	inactive: 2.15%		
CCOc1ccccc1CNC(=O)CSc1nnc(C)c2c(C)n(-c3ccccc3)nc12	inactive: -3.17%		
CCOCCCNC(=O)c1ccc2c(=O)n(CCc3ccc(OC)c(OC)c3)c(=O)[nH]c2c1	inactive: 2.66%		
CC(=O)N1CCc2cc(S(=O)(=O)NC(CC(C)C)C(=O)NCCc3cccc(C)c3)ccc21 (configuration not stated)	inactive: -5.84%		
COc1ccc(-c2cnnn2-c2ccc(NC(=O)c3ccccc3OC)cc2)cc1	inactive: -8.87%		
COc1ccc(CCNC(=O)CN2C(=O)COc3ccc(S(=O)(=O)N4CCCC4)cc32)c(OC)c1	inactive: 3.32%		
Cc1c(C(=O)NCc2cccc(Cl)c2)sc2nc3n(c(=O)c12)CCCC3		inactive	
Cc1ccc(NC(=O)CC2Oc3ccccc3NC2=O)cc1C (configuration not stated)		inactive	
COc1ccc(C2=C(N3CCN(c4cccc(C)c4C)CC3)c3ccccc3C2=O)cc1	inactive: 3.46%		
COc1ccc(-c2nc3sc(CCNC(=O)C(=O)Nc4cccc(NC(C)=O)c4)c(C)n3n2)cc1	inactive: 10.9%		
Nc1nn(-c2ccccc2)nc1C(=O)OCc1ccc(Cl)cc1		inactive	
Cn1c(=O)n(Cc2c(F)cccc2Cl)c(=O)c2c1nc1n2CCN1c1ccc(F)cc1	inactive: 3.05%		

SMILES	activity change, negative = inhibition	outcome	Potency
CCN(CC)CCCNC(=O)c1ccc(Cn2c(SCc3ccccc3)nc3cccnc32)cc1	inactive: -3.78%		
CO[C@@H]1C(N(C)C(=O)c2ccccc2)C[C@H]2O[C@]1(C)n1c3ccccc3c3c4c(c5c6ccccc6n2c5c31)C(=O)NC4=O (some centres not stated)	inactive: -7.97%		
COc1ccc(-c2cn3nc(N4CCCC(C(=O)NCc5ccc(Cl)cc5)C4)sc3n2)cc1 (configuration not stated)	inactive: 2.99%		
Cc1ccc(CCNC(=O)C2CCCN(c3nnc(C)c4c(C)n(-c5ccccc5)nc34)C2)cc1 (configuration not stated)	inactive: 2.52%		
COCCNC(=O)c1nn(-c2ccc(C)cc2)c(=O)c2c1c1ccccc1n2C	inactive: 2.71%		
CC1=C(C(=O)NCc2ccccc2F)C2(CCCCC2)OC1=O	inactive: -7.42%		
Cc1ccc(CSc2ncc(Cl)c(C(=O)Nc3nnc(C)s3)n2)cc1	inactive: -0.239%		
COc1cccc(-c2nc(CS(=O)(=O)CC(=O)NCc3cccc(Cl)c3)c(C)o2)c1		inactive	
CC1=C(c2ccc(F)cc2)S(=O)(=O)N=C1N1CCC(C(=O)NCCc2cccc(C)c2)CC1	inactive: -3.18%		
O=C(Nc1ccccc1Cl)N1CCC(CN2CCCC2)CC1	inactive: 6.66%		
Cc1ccc(NC(=O)CN2C(=O)c3cccnc3Oc3ccc(Cl)cc32)cc1	inactive: 0.866%		
COc1cc2ncc3c(-c4ccc(C)cc4)nn(-c4ccc(F)cc4F)c3c2cc1OC	inactive: 2.63%		
COc1ccc(Cn2ccnc2SCC(=O)Nc2nc3ccccc3s2)cc1	inactive: 0.533%		
Cc1ccccc1OCCSc1nc2ccc(NC(=O)c3cccc(F)c3)cc2s1	inactive: 9.24%		
O=C(NCc1ccc2c(c1)CCN2C(=O)c1ccccc1)Nc1cccc(C(F)(F)F)c1	inactive: -4.45%		
COc1ccc(NC(=O)c2cc3c(s2)-c2c(C)cccc2OC3)cc1Cl	inactive: 20.4%		
Cc1cc(Nc2ccccc2C)n2nc(Cc3ccc(Cl)cc3)nc2n1		inactive	
Cc1ccn2c(Nc3ccc4c(c3)OCCO4)c(-c3ccc(C)o3)nc2c1	inactive: 3.9%		
Cc1c(C(=O)NCc2ccccc2Cl)sc2ncnc(N(C)C3CCCCC3)c12	inactive: -1.8%		
CC(=O)c1ccc(NC(=O)c2ccc3c(c2)N(Cc2cccc(Cl)c2)C(=O)c2ccccc2S3=O)cc1 (configuration not stated)	inactive: -1.8%		
Cc1ccccc1-c1nc(CN2CCC(C(=O)NCc3ccc(F)cc3)CC2)c(C)o1	inactive: -0.0814%		
CCOC(=O)c1c(C)n(-c2ccccc2)c2ccc(OC(=O)COc3ccc(Cl)cc3)cc12	inactive: -5.42%		
O=C(NCc1ccccc1)c1ccc(NC(=O)N2CC3CCCN3c3ccccc32)cc1 (configuration not stated)	inactive: -1.07%		
Cn1c(=O)oc2cc(S(=O)(=O)CCC(=O)N3CCN(c4cccc(Cl)c4)CC3)ccc21	inactive: 7.31%		
CCNC(=O)C1CCN(S(=O)(=O)c2ccc3c(c2)CCCN3C(C)=O)CC1	inactive: 0.367%		

SMILES	activity change, negative = inhibition	outcome	Potency
CCOc1cc(C(=O)Nc2ccc(-c3cn4cccnc4n3)cc2)cc(OCC)c1OCC		inactive	
Cc1ccc2c(c1)c1c(c(=O)n(-c3ccccc3)c(=O)n1CC(=O)NCC1CCCO1)n2C (configuration not stated)	inactive: 8.12%		
Cc1nc2ccccn2c(=O)c1NC(=O)c1ccc(F)c(F)c1	inactive: -2.9%		
Cc1cccc(NC(=O)C2CCCN2S(=O)(=O)c2ccc3nc(-c4ccccc4)[nH]c3c2)c1 (configuration not stated)	inactive: -6.67%		
COc1cc(Cl)c(NC(=O)c2cc3ccccn3n2)c(OC)c1	inactive: 23.9%		
Cc1ccc(C)c(N2CCN(S(=O)(=O)c3cc(C(=O)Nc4ccc(Oc5ccccc5)cc4)ccc3F)CC2)c1	inactive: -6.83%		
COc1ccc(Br)cc1CNC(=O)c1cnc2sc(N3CCC(C)CC3)nn2c1=O	inactive: -6.67%		
CCCCNC(=O)CCCCCn1c(=O)[nH]c2ccccc2c1=O	inactive: -14.4%		
CCc1ccc(NC(=O)CN2C(=O)c3cccc4cccc2c34)cc1	inactive: 0.907%		
Cc1ccc(S(=O)(=O)c2nnn3c2nc(NCc2ccc4c(c2)OCO4)c2sccc23)cc1C	inactive: 6.42%		
Cc1nn2c(=O)cc(COC(=O)c3ccc(NC(=O)COc4ccc(C)c(C)c4)cc3)nc2s1	inactive: -10.3%		
O=c1n(Cc2ccccc2Cl)c2ccccc2c2nc(-c3ccccc3)nn12	inactive: 5.68%		
CCOc1ccc(C2CC(=O)Nc3nc(SCc4ccccc4C)[nH]c(=O)c32)cc1OC (configuration not stated)	inactive: -10.2%		
CC(C)NC(=O)c1ccc(Cn2c(SCC(N)=O)nc3ccccc3c2=O)cc1		inactive	
COCCCNC(=O)Cn1cnc2sc(C)c(S(=O)(=O)N3CCC(C)CC3)c2c1=O	inactive: -3.76%		
Cc1ncc(CO)c2c1Oc1nc(-c3ccccc3Cl)nc(SCc3ccccc3F)c1C2	inactive: -3.46%		
COC(=O)C(C)Sc1ccc2nnc(CCNS(=O)(=O)c3ccc(C)cc3)n2n1 (configuration not stated)	inactive: -3.93%		
Cc1ccc(C)c(NC(=O)n2ncc3cc(Cl)ccc32)c1	inactive: 9.22%		
CCc1ccc(-n2c(=O)c3cccnc3n2CC(=O)NCc2ccccc2)cc1		inactive	
COC(=O)c1cc2oc(C)cc2n1Cc1ccc(Br)cc1F	inactive: 8.13%		
COC(=O)c1ccc(NC(=O)CSc2ccc(-c3sc(-c4ccccc4)nc3C)nn2)cc1	inactive: -0.671%		
CCC(Oc1ccccc1-c1nnc(-c2ccccc2)o1)C(=O)Nc1ccc(C(C)=O)cc1 (configuration not stated)	inactive: 2.74%		
COc1ccc(C2CC(=O)N3CN(C4CCCCC4)CSC3=C2C#N)c(OC)c1 (configuration not stated)	inactive: 8%		
COc1ccc2nc(N(Cc3cccnc3)C(C)=O)sc2c1		inactive	
COc1cc(Cl)c(C)cc1Nc1nc2ccccc2c2nnc(C)n12	inactive: -5.32%		

SMILES	activity change, negative = inhibition	outcome	Potency
O=C(NCc1cccnc1)c1nn(-c2ccc(Cl)cc2)nc1CO	inactive: -2.06%		
COc1ccc(Nc2ncc3c(n2)CCN(Cc2ccccc2C)C3)c(OC)c1		inactive	
COc1ccccc1C1CC(=O)NC(C)=C1C(=O)OC1CCCCCC1 (configuration not stated)		inactive	
O=C(NC1CC(=O)N(c2ccc(F)cc2)C1)c1ccco1 (configuration not stated)	inactive: -4.17%		
O=C(Nc1cccc(C(F)(F)F)c1)c1ccc2c(c1)nnn2C1CCCC1	inactive: 5.82%		
COc1ccc(S(=O)(=O)NCCc2nnc3ccc(SCC(=O)Nc4ccccc4C)nn23)cc1	inactive: -1.45%		
CCc1ccc(-n2c(=O)c3c4c(sc3n(Cc3ccccc3C#N)c2=O)CCC4)cc1	inactive: 18.5%		
COc1cc2c(cc1OC)CN(C(=O)Nc1ccccc1)CC2	inactive: -10.6%		
CCS(=O)(=O)Nc1ccc(-c2cn3ccsc3n2)cc1	inactive: 9.32%		
COc1ccc(-c2nc3sc(CCNC(=O)c4ccco4)c(C)n3n2)cc1		inactive	
Cn1cc(CN(C(=O)Nc2ccccc2)C2CCCCC2)c2ccccc21	inactive: 32.6%		
CCCCn1c(=N)n(CCCOc2ccc(F)cc2)c2ccccc21		inactive	
CCn1cc2nc(SCc3cc(C)ccc3C)n(CCc3ccccc3)c(=O)c2n1		inactive	
CCCCn1c(=O)c2oc3ccccc3c2n(CC(=O)Nc2ccc(CC)cc2)c1=O	inactive: -0.558%		
COc1ccccc1NC(=O)c1ccc(COc2ccc(C)c(C)c2)o1	inactive: -0.951%		
Cc1cccc(N2CCN(S(=O)(=O)c3c(C)nc4scc(C)n4c3=O)CC2)c1C	inactive: 3.86%		
Cn1c(=O)c2c(nc(N3CCOCC3)n2Cc2ccccc2Cl)n(C)c1=O		inactive	
COCCCNC(=O)CCCn1c(=O)c2ccccc2n(CC(=O)Nc2ccc(C)cc2Cl)c1=O	inactive: 7.04%		
O=C(NCCc1ccc(Cl)cc1)c1nnc(Cc2ccc(Cl)cc2Cl)o1	inactive: 2.03%		
CC(C)Cn1c(-c2ccccc2Cl)nc2ccccc21	inactive: -14%		
CC(C)Cn1c(CN2CCN(c3cccc(Cl)c3)CC2)nc2c1c(=O)[nH]c(=O)n2C	inactive: 15.1%		
COc1ccc(N(CC(=O)NCCc2ccc(C)cc2)S(=O)(=O)c2c(C)nn(C)c2C)cc1		inactive	
